The source gives no read counts; variants with many changes may rest on few reads.
B1: LINE1-mini (parent)
chain: GGCAGAGCUCAACACAGCGUGGCAAAGUGGCUGUGGCUAGACUGCC

Variants of: B1
Experiment: self-cleavage, relative activity (ratio to wild type); higher = more cleavage; in vitro, sequencing; the parent is a self-cleaving ribozyme

Row | Variant | self-cleavage
1 | G5A C18U G36U C37U A39C | 0.03
2 | C8G A26C G30A G36A | 0.04
3 | C13A G22C C31G U38C C46U | 0.06
4 | C10G G40C C42U | 0
5 | C13U A14U C18U A24C U28G | 0.02
6 | U9A A12U C18A | 0.08
7 | G2U U20A G36A | 0.01
8 | C10A G35A U38C | 0.02
9 | C3A C10A G17C A39U | 0.05
10 | C3G C10U G21U | 0.17
11 | C8U U34C C46U | 0.03
12 | C3U C37U C45U | 0.05
13 | G30A C31A U34C C45G | 0.03
14 | C3G A4U A41U C42U G44U | 0.11
15 | C3A C13A U32G | 0.13
16 | C15U C23U G33U | 0.14
17 | G7U G22U A26C G27U G30U C42U C45U | 0.05
18 | A4G G17C C23G C31G C37A | 0
19 | A14C C15A C31U A41U | 0.01
20 | A6C A16U U20A C23A | 0.1
21 | G29U G30U G44U | 0.05
22 | G5C A14C G21C | 0.03
23 | G1C A26C U38G | 0.02
24 | A24G C31G C46G | 0.03

Row | Variant | self-cleavage
25 | G1U A6G C45A | 0.04
26 | G5C U9G C10A | 0.01
27 | C8G G27C G29U | 0.15
28 | C8A A25C A26U G33A C46A | 0.17
29 | A12G A14G U20C A26C G36U | 0.05
30 | A16C U32A A39U | 0.02
31 | C8U A24G C46G | 0.02
32 | G5C U20C G21U C23U | 0.02
33 | A11C G17U G19A | 0.02
34 | G5U C18U G21A U43C | 0.04
35 | G1U A12U A24C C45A | 0.04
36 | C8G A11G G30A U34C G35A U38A | 0
37 | G1U G2A C3G | 0.18
38 | G1C U34A G40U | 0.02
39 | C10A A14U A41U | 0.02
40 | G27C G40A C45U | 0.11
41 | U20G G22U U28A | 0.19
42 | A6G C13A G22U C23G G44U | 0.07
43 | C10A G19C A26G | 0.01
44 | U9C C10G G19A | 0
45 | A16C U20C G22U G30U G40C | 0.01
46 | G1U G7C C13U G19A G44C | 0.02
47 | C3G C10A A12C A14C G19U | 0.04
48 | G2U A4U C15G | 0.01

Row | Variant | self-cleavage
49 | G19C G35A U43A C45G | 0.03
50 | A4U U9A C42U | 0.16
51 | C18A G19U G21C C23G | 0.53
52 | A16C G29U G40A | 0.17
53 | G17C G19C G21U G40A | 0.02
54 | C18A U20C G22A | 0.04
55 | A12U C18G G19C | 0.82
56 | A4U A6U C13G C15A G36A U38G | 0.02
57 | C18G A26G U28A C31U U38G | 0.01
58 | G1C G17A C23G | 0.01
59 | C3U G21U U28C G29C U38A | 0.02
60 | A6U C13A G30U U38A | 0.08
61 | A6G C15G U32G A39C | 0.02
62 | G7C G21U U28G | 0.09
63 | A11C G17U A39C | 0.02
64 | C10U C13G G27U U34G | 0.03
65 | U9G C15A C23G A24C | 0.03
66 | A4C G21A A39C | 0.06
67 | G5C C8G C37G C42A | 0.11
68 | C10A C15G G33A | 0.03
69 | G1U A6U C23U C42U | 0.03
70 | C31U U32C C45G | 0.1
71 | C3U A16C U20G G22U C23U U38A C46G | 0.08
72 | G17A G19U G27A C46A | 1.47

Row | Variant | self-cleavage
73 | G5U C8A U9C A16C G19U G35C G36C U38A C42A | 0.02
74 | G2C G21U A26C G30A C45A | 0.21
75 | C3A G22A G29A U38A | 0.06
76 | G7C C8U C10A C18G G44A | 0.05
77 | G2C A25C C46U | 0.19
78 | G7C C10G A11G C15A G27U | 0
79 | C3A C18A G40C G44U | 0.04
80 | C15A U20G G22C C42A | 0.05
81 | C8U A41G G44A | 0.04
82 | G5C A24C G29C C37G G44A | 0.03
83 | G5C G7U C10A U28C U32G | 0.02
84 | C8G A12U G40U A41U C42U | 0.02
85 | A14U A25C A39C | 0.11
86 | A26G G27A U32A C46G | 0.03
87 | U9A C23U A26U | 0.12
88 | C31G U43A G44A | 0.05
89 | A14G C18A G22A | 1.11
90 | G5A C8G C13A A25C U34G | 0.04
91 | A11U C42U C45A | 0
92 | A4U G5A G7C U9G C10A | 0.05
93 | G1U G5A A12U C45G | 0.13
94 | G2U A11G A14U G27A | 0.01
95 | C3U G7C C10U G19U U43G | 0.02
96 | C8A A12G C18U | 0.01

Row | Variant | self-cleavage
97 | C3A C13U G29U | 0.17
98 | U9C G17U G21C C37U | 0
99 | A11U C15A C45G | 0.02
100 | A6C U20C C37A | 0.05
101 | C3U C10G C23A A25C | 0.12
102 | C3A C10G C15U A39G A41C | 0.03
103 | G1A A12U A26G U34C | 0.01
104 | C3G C15U A16G G19U U20C | 0.14
105 | C8U C13A C46G | 0.3
106 | G36A A39C A41U | 0.87
107 | G19C C23G A26G G40U | 0.01
108 | C8G G33U C42U | 0.02
109 | C8U C37G G40U | 0.04
110 | A11G A24G A26U G29U U38G A41U | 0
111 | G1U C3U G21C G30C | 1.63
112 | G7U C13U A24C | 0.39
113 | C8A U9C G17A C18G G22U | 0.04
114 | A26G C31A G44A | 0.02
115 | A14G G19A U32C G33A | 0
116 | A11U G33U G35U | 0.04
117 | G33A C37A C45G | 0.03
118 | C10G G33U G35U | 0.03
119 | C10A A25U A41U G44U C46G | 0.01
120 | G5C C8U C15U G33U | 0.02

Row | Variant | self-cleavage
121 | G2C C3A A16C G17A G30A U43C | 0.02
122 | C13U C23U A25G C31G G35U G40A | 0.04
123 | G17C G19C U20A G29C | 0.04
124 | C3A U9A G21C G35A | 0.52
125 | G5U G17A G19U G40U | 0
126 | G22U G29A C46G | 0.49
127 | A24U A25U C31A | 0.04
128 | A12G G19U U28G | 0.01
129 | A11U G35A U43A | 0.03
130 | G2U G29A A39C | 0
131 | G7U A26G G29A U38A C46U | 0
132 | U9C U38C G44A | 0.03
133 | A6U G7C C8G A14C U20C C37G | 0.14
134 | U9A C10U A25U | 0.03
135 | C3G C15G G22C | 0.04
136 | U9C A16U A24G A39G G44A | 0.03
137 | G1A C31G U32G U34G | 0.02
138 | U20C G27U G36U C37G | 0.02
139 | A4C A11U G27U G29A | 0.02
140 | G5C U9C C13U A26C C37U | 0.01
141 | G30U C31G G36C | 0.04
142 | G5A A11G G21U C42A | 0
143 | A24C U34C A39C | 0.04
144 | G22C G30U C37G | 0.02

Row | Variant | self-cleavage
145 | C3U G27A G35U | 0.34
146 | G17C C37G U43A | 0.24
147 | G5U C8G G36A | 0.42
148 | A14G C23A U38A | 0.2
149 | C8A C23A C31U | 0.35
150 | A6C C8U G35U A41U C42A | 0
151 | C8A A11U A12U A41U | 0.03
152 | A6G U20C G29C | 0.04
153 | U9G G22A G27A | 0.14
154 | C18G G30A U34C | 0.02
155 | C3U C13A C31A G40U | 0.2
156 | C8G G19C G30C | 0.28
157 | C3U A4C A11U A24G U34G | 0.03
158 | G5A G17A U38G C42G | 0.05
159 | C10A G22C C45U | 0.04
160 | C23A A25G U28C G36C | 0.01
161 | C3U A14U A24U G29U G40A | 0.05
162 | G7C G17U C31U | 0.17
163 | U20G G22A G30A G33C G36C | 0.03
164 | G19C G30U U32A C37G | 0.06
165 | A4G C10A A16U | 0.04
166 | G7U C8A A11G C15U C23A | 0
167 | C3A A24U C31U G36C | 0.02

Source: the RNAGym collection of RNA variant scans (doi:10.7554/elife.90254)
